Assay [1] has as its target Histamine N-methyltransferase (Homo sapiens) (UniProt P50135). In words: Confirmatory Screen for Target Class Profiling of Small Molecule Inhibitors of Methyltransferases (AID 1745852).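 Further: inhibitor potency for blocking SAH production.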 The settings on record: MTase-Glo luminescence, SAH detection, recombinant enzyme; measured here: HNMT inhibition potency.
In assay [2] the target is Nicotinamide N-methyltransferase (Homo sapiens) (UniProt P40261). The description is as above. The conditions noted are these: MTase-Glo luminescence, SAH detection, recombinant enzyme; measured here: NNMT inhibition potency.
Chain of UniProt P40261 (P40261 whole entry, looked up, the tested form may be a part): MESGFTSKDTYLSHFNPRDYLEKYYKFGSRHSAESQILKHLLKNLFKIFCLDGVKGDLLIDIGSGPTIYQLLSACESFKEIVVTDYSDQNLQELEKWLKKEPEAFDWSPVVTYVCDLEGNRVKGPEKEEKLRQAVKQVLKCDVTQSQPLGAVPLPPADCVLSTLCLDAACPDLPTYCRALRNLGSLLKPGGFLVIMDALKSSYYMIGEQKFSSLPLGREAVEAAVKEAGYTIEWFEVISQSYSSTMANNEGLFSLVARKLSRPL
Assay [3] can be described thus: qHTS for identification of novel therapeutic agents for treatment of microphthalmiaassociated transcription factor (MiT) renal cell carcinoma (RCC) (AID 1963991). The conditions noted are these: CellTiter-Glo, 48 h; for z-score: stronger effect = lower value. The procedure, abridged: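 Curves over 11 concentrations were fitted to CellTiter-Glo luminescence, scaled between empty wells (0%) and DMSO (100%) viability. Cells were UOK109, UOK124 and UOK145 TFE3-fusion RCC lines at 500/well, exposed 48 hours at 37 C.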

Assay [4] can be described thus: qHTS drug screen for cell cycle checkpoint inhibitors in PARPi-resistant BRCA-mutant ovarian cancer cell lines. (AID 1963452). The conditions noted are these: PEO1/OlaR viability, CellTiter-Glo luminescence, 96 h. The procedure, abridged: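 PEO1, PEO4 and PEO1/OlaR ovarian cancer cells, 600 per well, exposed 96 h at 37C to a dilution series. Viability read by CellTiter-Glo luminescence, normalized to DMSO and empty wells; activity summarized as Z-AUC.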

The target of assay [5] is Phenylethanolamine N-methyltransferase (Homo sapiens) (UniProt P11086). In words: Confirmatory Screen for Target Class Profiling of Small Molecule Inhibitors of Methyltransferases (AID 1745852).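 Further: inhibitor potency for blocking SAH production.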 The conditions noted are these: MTase-Glo luminescence, SAH detection, recombinant enzyme; measured here: PNMT inhibition potency.
Chain of UniProt P11086 (P11086 whole entry, looked up): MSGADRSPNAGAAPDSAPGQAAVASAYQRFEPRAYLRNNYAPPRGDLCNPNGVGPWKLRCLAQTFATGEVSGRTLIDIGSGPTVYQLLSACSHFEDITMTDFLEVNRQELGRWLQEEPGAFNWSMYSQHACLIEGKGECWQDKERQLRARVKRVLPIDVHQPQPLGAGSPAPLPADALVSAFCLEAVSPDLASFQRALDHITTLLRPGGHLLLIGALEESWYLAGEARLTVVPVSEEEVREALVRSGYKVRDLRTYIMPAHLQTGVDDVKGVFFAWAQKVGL
Where [6] appears, read: TFE3-RCC UOK109 viability, measured here: UOK109 Z-AUC.
The mark [7] stands for this setting: TFE3-RCC viability, measured here: UOK124 Z-AUC.
[8] abbreviates: TFE3-RCC viability, measured here: UOK145 Z-AUC.
Where [9] appears, read: TFE3-RCC viability, measured here: UOK145 cell viability.
The mark [10] stands for this setting: measured here: PEO1 parental viability.
The mark [11] stands for this setting: TFE3-RCC viability, measured here: UOK124 cell viability.

This is one part of the list. The main result of the screen is listed elsewhere. These columns were measured beside it and carry no call. For part of these data: Compounds called inactive in the main read-out are mostly missing here. The note in brackets gives the kind of curve behind each potency; many fits are weak.
Tags describe the fitted curve by direction and shape.

Chain of UniProt P50135 (P50135 whole entry, looked up): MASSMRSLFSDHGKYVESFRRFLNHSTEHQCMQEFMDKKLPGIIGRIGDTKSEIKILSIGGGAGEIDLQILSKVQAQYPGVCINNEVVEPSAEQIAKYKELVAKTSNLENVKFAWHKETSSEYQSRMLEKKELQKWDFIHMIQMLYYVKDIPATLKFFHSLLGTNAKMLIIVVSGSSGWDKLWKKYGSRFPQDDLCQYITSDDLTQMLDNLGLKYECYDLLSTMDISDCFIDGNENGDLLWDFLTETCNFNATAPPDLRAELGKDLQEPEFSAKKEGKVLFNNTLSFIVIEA

As to `COc1cc2c(cc1OC)CN(CCc1ccc(NC(=O)c3cccc4c(=O)c5cccc(OC)c5[nH]c34)cc1)CC2`, the IC50 in assay [1] was 7.64 µM [falling, full curve]; in assay [2], 1.52 µM [falling, full curve]. Moreover, the z-score is -0.648 in assay [3] (setting [6]), 0.81 in assay [3] (setting [7]) and 0.289 in assay [3] (setting [8]). The AC50 in assay [3] (setting [9]) was 16.6 µM [falling, partial curve].
With `CCNC(=O)C#Cc1ccc2c(C(=Nc3ccc(CN(C)C)cc3)c3ccccc3)c(O)[nH]c2c1`, the IC50 was 6.63 µM [falling, partial curve] in assay [1] and 10.5 µM [falling, partial curve] in assay [2]. In addition, the AC50 in assay [4] (setting [10]) is 0.379 µM [falling, full curve]; in assay [4] (measured here: PEO4 viability) it was 0.0952 µM [falling, full curve].
Take `Oc1cccc(Nc2ccnc3[nH]c4ccccc4c23)c1`: the IC50 in assay [1] was 9.61 µM [falling, partial curve]; in assay [2], 13.6 µM [falling, partial curve]; in assay [5] it was 19.2 µM [falling, partial curve, poor fit].
In the case of `N#C/C(=C1\Nc2ccccc2S1)c1ccnc(NCCc2cccnc2)n1`, the IC50 in assay [1] was 42.9 µM [falling, single point]; in assay [2], 12.1 µM [falling, partial curve]; in assay [5] it was 21.5 µM [falling, partial curve, poor fit].
Regarding `Fc1ccc2[nH]ccc2c1-c1nc(N2CCOCC2)c2sc(CN3CCN(CC4CC4)CC3)cc2n1`, the IC50 was 10.8 µM [falling, partial curve] in assay [1] and 19.2 µM [falling, partial curve] in assay [2]. In assay [4] (measured here: PEO4 viability), the AC50 is 15.5 µM [falling, partial curve].
Consider `N#Cc1cnc2c(Cl)cc(NCc3cn(CCN4CCCCCC4)nn3)cc2c1Nc1ccc(F)c(Cl)c1`, for which the IC50 was 7.64 µM [falling, partial curve] in assay [1]; 21.5 µM [falling, partial curve, poor fit] in assay [2]; 21.5 µM [falling, partial curve] in assay [5].
For the compound `NCC(CNc1nc(Nc2cccc(NC(=O)N3CCCC3)c2)ncc1I)C(=O)c1cccs1` (stereo not drawn), the IC50 in assay [1] is 24.1 µM [falling, partial curve]; in assay [2], 21.5 µM [falling, partial curve].
Consider `CN(C)c1nc(NC2CCC(NCCc3ccc(Br)cc3OC(F)(F)F)CC2)nc2ccccc12` (stereo not drawn), for which the IC50 in assay [1] was 10.8 µM [falling, partial curve]; in assay [2], 6.07 µM [falling, full curve]; in assay [5] it was 21.5 µM [falling, partial curve].
Consider `NC(=O)c1cccc2[nH]c(-c3ccc([C@@H]4CCCN4)cc3F)nc12`, for which the IC50 in assay [1] was 19.2 µM [falling, partial curve]. In addition, the AC50 in assay [4] (setting [10]) was 11 µM [falling, partial curve, poor fit]; in assay [4] (measured here: PEO4 viability), 19.5 µM [falling, single point].
On to `CNCc1ccc(-c2[nH]c3cc(F)cc4c3c2CCNC4=O)cc1`, for which the IC50 in assay [1] was 21.5 µM [falling, partial curve]. Also, the z-score is -0.408 in assay [3] (setting [6]), -0.238 in assay [3] (setting [7]) and -0.377 in assay [3] (setting [8]). Also, the AC50 in assay [3] (setting [9]) was 37.2 µM [falling, partial curve, poor fit].
In the case of `Cn1ccc(Nc2cc3c(cn2)CN(CCc2ccccc2)CCN3)n1`, the IC50 in assay [1] was 1.97 µM [falling, full curve]; in assay [5], 31.2 µM [falling, partial curve].
`CC(=O)N(C)C1(c2ccccc2)CCN(CCC[C@]2(c3ccc(Cl)c(Cl)c3)CCCN(C(=O)c3ccccc3)C2)CC1`: the IC50 in assay [1] is 24.1 µM [falling, partial curve, poor fit]; in assay [2] it was 19.2 µM [falling, partial curve]. Further, the results for the z-score in assay [3] (setting [6]), in assay [3] (setting [7]) and in assay [3] (setting [8]) were 0.275, 0.445 and -0.208, respectively. Moreover, the AC50 in assay [3] (setting [11]) was 20.9 µM [falling, partial curve]; in assay [3] (setting [9]), 26.4 µM [falling, single point].
As for `Cc1nc(Nc2n[nH]c3c2CN(C(=O)N[C@H](CN(C)C)c2ccccc2)C3(C)C)c2sccc2n1`, in assay [1], the IC50 is 19.2 µM [falling, partial curve]. The AC50 in assay [4] (setting [10]) is 1.55 µM [falling, full curve]; in assay [4] (measured here: PEO4 viability), 1.74 µM [falling, full curve, poor fit]; in assay [3] (setting [11]), 5.26 µM [falling, partial curve]; in assay [3] (setting [9]), 6.62 µM [falling, partial curve]. Also, the z-score in assay [3] (setting [6]) was -1.35; in assay [3] (setting [7]) it was -0.702; in assay [3] (setting [8]) it was -1.07.
Turning to `Nc1nc(Nc2ccc3c(c2)CC[C@@H](N2CCCC2)CC3)nn1-c1cc2c(nn1)-c1ccccc1CCC2`, the IC50 in assay [1] is 6.81 µM [falling, full curve]. The AC50 in assay [4] (setting [10]) is 12.3 µM [falling, partial curve]; in assay [4] (measured here: PEO4 viability) it was 9.77 µM [falling, partial curve].
Consider `COc1cc2c(Nc3ccc(Br)cc3F)ncnc2cc1OCC1CCN(C)CC1`, for which the IC50 in assay [1] is 13.6 µM [falling, partial curve]. Also, the AC50 in assay [4] (setting [10]) was 13.8 µM [falling, partial curve]; in assay [4] (measured here: PEO4 viability) it was 19.5 µM [falling, partial curve]; in assay [3] (setting [11]), 18.7 µM [falling, partial curve]; in assay [3] (setting [9]), 14.8 µM [falling, partial curve]. Moreover, the z-score in assay [3] (setting [6]) is -2.42; in assay [3] (setting [7]) it was -0.631; in assay [3] (setting [8]) it was -1.71.
